Measured values from PubChem BioAssay AID686971 (National Center for Advancing Translational Sciences (NCATS), 2013).
Out of some 360,000 compounds screened, about 7,500 (2.1%) were called active. The shares of active, inactive and inconclusive entries below differ from those in the screen. Calls follow the shape of the dose curve; as a rule, active = well fitted cell-killing curve with a large enough effect; inconclusive = small, poorly fitted or top-dose-only effect, or effect the other way, or another doubt; inactive = no such curve, though single readings can be large or run the other way. No potency is given beside an inconclusive call; the fits are too rough.

Assay: qHTS for induction of synthetic lethality in tumor cells producing 2HG: qHTS for the HT-1080-IDH1KD cell line;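 as to activity, negative = toxicity: 0% = DMSO wells and -100% = cell-free medium wells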
Conditions: HT-1080 IDH1 knockdown viability, ATP luminescence, 48 h; activity, negative = toxicity: at 46.1 µM (top of the series) unless noted
Summary of the method: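 Viability of IDH1-knockdown HT-1080 fibrosarcoma cells was assessed by CellTiter-Glo after 48 h at 37 °C with titrated compound; concentration-effect curves were classified by fit quality and response size.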
Potency is read from the fitted curve at half-maximal effect; tags tell the direction and shape of the fitted curve.

| Compound | Potency | activity, negative = toxicity |
| --- | --- | --- |
| Cc1ccc(S(=O)(=O)CCSC(=N)N)cc1 | inconclusive [cytotoxic, partial curve, poor fit] | – |
| COc1ccc(C(CNC(=O)COc2ccc(-c3ccccc3)cc2)N2CCOCC2)cc1 (stereo not drawn) | inconclusive [cytotoxic, single point] | – |
| c1ccc(C[C@H]2CN=C(Nc3ccccc3)N2CCC2CCCC2)cc1 | inconclusive [cytotoxic, single point] | – |
| COc1ccccc1Nc1nnc(SCc2cc(=O)n3ccsc3n2)s1 | inconclusive [cytotoxic, single point] | – |
| CSCC(=O)N1CCCC(N2CCN(c3cccc(C(F)(F)F)c3)CC2)C1 (stereo not drawn) | – | inactive: -4.55% |
| O=C1/C(=C/c2ccc(O)cc2)SC(=S)N1CC1CCCO1 (stereo not drawn) | inconclusive [cytotoxic, single point] | – |
| O=C(N/N=C/c1cccnc1)c1ccccc1Br | – | inactive: 8.3% |
| COc1cccc(OC)c1C(=O)OCC(=O)NCC1CCCCC1 | – | inactive: 7.18% |
| O=C1CCCCC1C(Nc1ccc(Br)cc1)c1ccccc1 (stereo not drawn) | inconclusive [cytotoxic, partial curve] | – |
| Cc1ccc(N2CCN(C(=O)CCc3nc4ccccc4[nH]3)CC2)c(C)c1 | – | inactive: -16.5% |
| Cc1ccc(S(=O)(=O)CC(=O)Nc2nccs2)cc1 | – | inactive: 4.08% |
| O=C(Nc1ccccc1)Nc1nc2ccccc2s1 | inconclusive [cytotoxic, single point] | – |
| CC(NC(=O)c1cc(-c2ccccc2)on1)c1ccccc1 (stereo not drawn) | inconclusive [cytotoxic, single point] | – |
| CCN(CC)c1ccc(/C=N/NC(=O)Nc2ccccc2)cc1 | inconclusive [cytotoxic, single point] | – |
| O=C1C=C(c2ccc3ccccc3c2)C[C@@H](c2ccc(Cl)cc2)C1 | – | inactive: 6.45% |
| COc1ccc(C(=O)Oc2coc(CSc3nnc(NC(=O)c4cccs4)s3)cc2=O)cc1 | inconclusive [cytotoxic, single point] | – |
| COc1cc(CC(=O)NCCc2ccc(OCc3ccccc3)cc2)c([N+](=O)[O-])cc1OC | inconclusive [cytotoxic, single point] | – |
| COc1ccccc1CC(=O)Nc1ccc([N+](=O)[O-])cc1O | inconclusive [cytotoxic, single point] | – |
| COc1cccc(-c2cc(C(=O)Nc3cc(OC)c(OC)c(OC)c3)no2)c1 | inconclusive [cytotoxic, single point] | – |
| COc1cc(C(=O)NCC(=O)N/N=C/c2cccc(OC(=O)c3ccco3)c2)cc(OC)c1OC | inconclusive [cytotoxic, single point] | – |
| COc1cccc(C(C)(O)c2nc(-c3ccc4ccccc4c3)cs2)c1 (stereo not drawn) | inconclusive [cytotoxic, single point] | – |
| COc1ccccc1NC(=O)C1CCN(S(=O)(=O)c2ccc3c(c2)CC(C)N3C(C)=O)CC1 (stereo not drawn) | – | inactive: -0.588% |
| Cc1ccc2c(c1)N(S(=O)(=O)c1cc(-c3onc(C)c3C)ccc1C)CCO2 | inconclusive [cytotoxic, single point] | – |

| Compound | Potency | activity, negative = toxicity |
| --- | --- | --- |
| O=C(CNc1cccc([N+](=O)[O-])c1)N/N=C/c1ccc([N+](=O)[O-])o1 | inconclusive [cytotoxic, full curve, poor fit] | – |
| CCOC(=O)c1cc(-c2csc(Nc3ccccc3Cl)n2)on1 | – | inactive: -1.35% |
| Cc1cc(C)c2cc(C#N)c(NCCNC(=O)c3ccncc3)nc2c1 | – | inactive: 26.7% |
| Cc1ccccc1-n1ncc2c([N+](=O)[O-])cc([N+](=O)[O-])cc21 | inconclusive [cytotoxic, single point] | – |
| CCn1ncc(C2=NOC(C(=O)Nc3ccccc3C(=O)OC)C2)c1C (stereo not drawn) | inconclusive [cytotoxic, partial curve] | – |
| CC(=O)N1CCN(Cc2nc3cc(NC(=O)c4cccc(Br)c4)ccc3n2C)CC1 | inconclusive [cytotoxic, partial curve] | – |
| C/C(=N\NC(=O)c1ccccc1)c1ccccc1Br | inconclusive [cytotoxic, partial curve] | – |
| Cn1cc(CNCC2CCCO2)c(-c2ccc(Oc3ccccc3)cc2)n1 (stereo not drawn) | inconclusive [cytotoxic, single point] | – |
| C=CCn1c(SCC(=O)Nc2ccc(Br)cc2)nc(O)cc1=O | – | inactive: -12.9% |
| CCOc1ccc(N2C(=O)/C(=C/c3cccs3)N(CC(=O)OC)C2=S)cc1 | inconclusive [cytotoxic, single point] | – |
| COc1ccc(-c2nc(NCCN(C)C)nc3ccsc23)c(C)c1 | inconclusive [cytotoxic, single point] | – |
| COc1ccc(CC(N)c2csc(NC(=O)Nc3ccc(C(C)C)cc3)n2)cc1 (stereo not drawn) | active: 14.6 µM | – |
| COc1ccc(-c2ccoc2)cc1[C@H]1[C@H]2C=CC[C@@H](C)[C@@H]2C(=O)N1Cc1ccccc1 | inconclusive [cytotoxic, single point] | – |
| O=C1N/C(=C/c2ccc(Br)cc2)C(O)=C1C=NCc1ccccc1 | inconclusive [cytotoxic, full curve] | – |
| Cc1cccc(N2CCN(C(=O)c3cc(S(=O)(=O)N4CCCC4)cn3C)CC2)c1C | active: 14.6 µM | – |
| CN(C(=O)COC(=O)c1c2c(nc3ccccc13)/C(=C/c1cccc([N+](=O)[O-])c1)CCC2)C1CCS(=O)(=O)C1 (stereo not drawn) | active: 5.8 µM | – |
| Cc1cc(N=NC(=O)c2ccccc2O)c2ccccc2c1O | inconclusive [cytotoxic, single point] | – |
| CCC(C)n1ncn(-c2ccc(N3CCN(c4ccc(OCC5COC(Cn6cncn6)(c6ccc(Cl)cc6Cl)O5)cc4)CC3)cc2)c1=O (stereo not drawn) | – | inconclusive: -2.83% [cytotoxic] |
| COc1ccc(C(N)c2csc(NC(=O)Nc3ccccc3C(C)(C)C)n2)cc1 (stereo not drawn) | inconclusive [cytotoxic, single point] | – |
| COc1cccc(N2CCc3c(C)nc4ccc(Cl)cc4c32)c1 | active: 20.6 µM | – |
| CCOC(=O)C1=CCN(S(=O)(=O)c2ccc(F)cc2)C1c1ccc(Cl)c(Cl)c1 (stereo not drawn) | inconclusive [cytotoxic, single point] | – |
| O=C(/C=C\Nc1ccc2c(c1)OCO2)c1cccs1 | active: 6.51 µM | – |
| O=C1C(Cl)=C(Nc2ccc3cn[nH]c3c2)C(=O)c2ccccc21 | active: 2.59 µM | – |

| Compound | Potency | activity, negative = toxicity |
| --- | --- | --- |
| COCCCN(C(C)=O)c1nc(-c2ccc(OC)cc2)cs1 | – | inactive: -22.5% |
| Nc1nc2ccc(Cl)cc2cc1C(=O)NCCc1ccc(O)cc1 | inconclusive [cytotoxic, full curve, poor fit] | – |
| Cc1ccc(S(=O)(=O)Nc2c(NC3CCCCC3)c3ccccc3oc2=O)c(C)c1 | inconclusive [cytotoxic, single point] | – |
| O=C(Cc1ccccc1)Nc1cc(C(=O)c2ccccc2)ccc1N1CCOCC1 | – | inactive: -1.77% |
| CCOc1ccc(CCNC(=O)COC(=O)c2cc(OC)c(OC)cc2[N+](=O)[O-])cc1OCC | – | inactive: -10.3% |
| O=S(=O)(Nc1nc(SCc2ccc(Cl)cc2)n[nH]1)c1ccc(F)cc1 | inconclusive [cytotoxic, partial curve, poor fit] | – |
| O=S(=O)(c1ccc(Cl)cc1)c1snnc1-c1ccccc1 | active: 7.31 µM | – |
| Cc1cc(C)c(CN2CCN(Cc3ccc(C)o3)C(CCO)C2)c(-n2cccn2)c1 (stereo not drawn) | inconclusive [cytotoxic, partial curve] | – |
| Fc1cccc(NC(=S)Nc2ccc(Br)cc2)c1 | inconclusive [cytotoxic, single point] | – |
| CNCCCN1c2ccccc2CCc2ccccc21 | inconclusive [cytotoxic, single point] | – |
| Cc1ccc(Nc2nc(=O)c3cccnc3s2)cc1 | inconclusive [cytotoxic, single point] | – |
| CS(=O)(=O)c1ccc(C(=O)Nc2cc(S(C)(=O)=O)ccc2Cl)cc1 | inconclusive [rising, single point] | – |
| Cc1c(O)ccc(/C(Cc2ccc3ccccc3n2)=N\N)c1O | inconclusive [cytotoxic, single point] | – |
| COC(=O)c1c(C)oc2ccc(N(C(C)=O)S(=O)(=O)c3ccccc3)cc12 | inconclusive [cytotoxic, partial curve] | – |
| Cn1c(=O)n(C)c2cc(C(=O)Nc3ccc4c(c3)OCO4)ccc21 | inconclusive [cytotoxic, partial curve] | – |
| COc1cc(/C=N/Nc2nc(Nc3ccccc3)nc(-n3nc(C)cc3C)n2)cc(OC)c1OC | active: 14.6 µM | – |
| COc1ccc(-c2csc(NC(=O)c3ccc(C(C)(C)C)cc3)c2C(=O)O)cc1 | inconclusive [cytotoxic, partial curve] | – |
| Cc1ccc(CSCC(=O)Nc2cc(S(=O)(=O)N3CCOCC3)ccc2OCC(F)(F)F)cc1 | – | inactive: -5.73% |
| CCN1CCCC1CN(Cc1cc2ccc(C)cc2[nH]c1=O)C(=S)Nc1ccc(OC)cc1 (stereo not drawn) | inconclusive [cytotoxic, single point] | – |
| O=c1cc(-c2ccccc2Cl)oc2c(NS(=O)(=O)c3cc(Cl)cc(Cl)c3O)ccc(O)c12 | inconclusive [cytotoxic, partial curve] | – |
| CC(C)Oc1cc(F)ccc1-c1cc(C(=O)Nc2cccc(Cl)c2)[nH]n1 | inconclusive [cytotoxic, single point] | – |
| CCOc1ccc(NC(=O)Nc2cccn(Cc3ccccc3)c2=O)cc1 | inconclusive [cytotoxic, partial curve] | – |
